The supplement of paper PMC12889115
This is one part of the list. No stated cut-off is given here; in the data, active = 25% or less and inactive = the rest. Many values rest on one well or one pass, so single values are uncertain.

How the values were obtained:
[1] = system: Salmonella enterica serovar Typhimurium SL1344; experiment: bacterial growth OD600 after 18 h in MHB with 0.5 µg/mL polymyxin B; higher = more bacterial growth (less inhibition); settings: 25 µM; polymyxin B 0.5 µg/mL; system: broth
Protocol: (§1)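 Secondary screen of the 553 primary hits at 25 µM. (i) S. Typhimurium SL1344 grown in Mueller-Hinton broth with 0.5 µg/mL polymyxin B, OD600 read after 18 h. (ii) SAFIRE assay: RAW 264.7 macrophages infected with S. Typhimurium sifB::gfp (MOI 30); compound added 2 h post-infection; cells fixed at 18 h; GFP-positive pixel fraction per macrophage imaged by confocal microscopy and expressed as % of DMSO control.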

[2] = system: Salmonella enterica serovar Typhimurium SL1344; experiment: intramacrophage bacterial GFP load (SAFIRE), percent of DMSO control (% of DMSO); higher = more intracellular bacteria (less inhibition); settings: 25 µM; system: infected RAW 264.7 macrophages
Protocol: as §1
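Wherever bacterial growth OD600 after 18 h in MHB with 0.5 µg/mL polymyxin B is given: polymyxin B level opens the outer membrane while sparing the inner membrane, with novobiocin wells as reference growth inhibitor.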
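Wherever intramacrophage bacterial GFP load (SAFIRE), percent of DMSO control is given: compounds tested were the hits of an earlier 50 µM broth growth screen of a drug-like diversity library run with polymyxin B.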

SMILES	bacterial growth OD600 [1]	intramacrophage bacterial GFP load [2]
COc1ccc(C(=O)N(Cc2ccc(OC)c(OCc3cccs3)c2)C2CCCC2)c(OC)c1	0.005	inactive: 119
CN1CCN(C(=O)c2cc(COc3ccc(F)cc3F)on2)CC1c1ccccc1 (stereo not given)	0.048	inactive: 68.4
CN(Cc1nccs1)C(=O)CC(c1ccccc1)c1cccc(Cl)c1 (stereo not given)	0.288	inactive: 72.2
O=C(Cc1ccc2c(c1)OCO2)N(Cc1ccncc1)Cc1cccc(OCCc2ccc(F)cc2)c1	0.003	inactive: 122
c1csc(CNc2nc(CN3CCc4ccccc4C3)nc3ccccc23)c1	0.001	inactive: 109
CCOC(=O)C1(Cc2ccc(Cl)cc2)CCN(C(=O)C(C)n2nc(C)cc2C)CC1 (stereo not given)	-0.011	active: 3.22
O=C(c1ccsc1)N1CCc2[nH]nc(-c3ccc(F)c(F)c3)c2C1	0.005	inactive: 182
O=C(c1ccccc1OC1CCN(Cc2ccc(Cl)s2)CC1)N1CCCCC1	0.003	active: 6.99
O=C(c1cccs1)N1CCc2[nH]nc(-c3cccc(F)c3)c2C1	0.006	inactive: 143
O=C(c1csc(-c2cccs2)n1)N1CCCC(CO)(Cc2cccc(Cl)c2)C1 (stereo not given)	-0.005	inactive: 109
O=C(CCN1Cc2ccccc2OC(c2ccccc2)C1)N1CCC(Oc2cccnc2)CC1 (stereo not given)	0.003	active: 20.7
O=C(c1cn(Cc2ccc(F)cc2)nn1)N1CC[C@@H]2CCCC[C@H]2C1	-0.009	inactive: 109
COc1ccc(CC2(CCC(=O)N3CC4(C)CC3CC(C)(C)C4)CCC(=O)N2)c2ccccc12 (stereo not given)	0.006	inactive: 29.8
O=C(c1ccc2oc(-c3cccc(F)c3)nc2c1)N1C[C@@H]2CCC[C@H]1C2	0.03	inactive: 108
COc1cccc(CC2(CCC(=O)NC(c3ccccc3)c3ccc(Cl)cc3)CCC(=O)N2)c1 (stereo not given)	-0.001	inactive: 138
CN(Cc1ccccc1)C1(C(=O)NCCn2cccn2)Cc2ccccc2C1	0.003	inactive: 42.3
CCOC(=O)C1(Cc2ccccc2C)CCCN(S(=O)(=O)c2c(C)noc2C)C1 (stereo not given)	-0.005	inactive: 80.2
O=C1NC(CC(=O)N(Cc2ccncc2)Cc2cccc(OCCc3ccc(F)cc3)c2)c2ccccc21 (stereo not given)	-0.009	inactive: 50.6
COc1ccc(-c2nn(-c3ccccc3C)cc2CN(C)Cc2cnccn2)cc1F	0.42	inactive: 52.6
O=C(c1coc(COc2ccc3c(c2)OCO3)n1)N1CCCC(c2ccccc2)C1 (stereo not given)	-0.002	inactive: 111
O=C(COc1ccccc1Cl)N1CCCC(Nc2ccc3c(c2)OCCO3)C1 (stereo not given)	0.433	inactive: 102
Cc1ccc(Cl)cc1N1CCN(C(=O)c2cn(CC3CCCO3)nn2)CC1 (stereo not given)	0.029	inactive: 29.6
OCC1(Cc2ccccc2F)CCCN(Cc2cnc(-c3ccc(Cl)cc3)nc2)C1 (stereo not given)	0.01	inactive: 36
Cc1c(CN2CCOc3ccc(C4=Cc5ccccc5CC4)cc3C2)c(=O)n(-c2ccccc2)n1C	-0.013	active: 1.2
CN(c1ncccc1CNS(C)(=O)=O)C1CCCCC1	0.635	inactive: 98.5
CC(C)CS(=O)(=O)c1ncc(CN(C)C2CCCCC2)n1Cc1ccccc1	0.002	active: 14.6
Cc1cccc(N2CCN(C(=O)CCN3Cc4ccccc4OC(c4ccccc4F)C3)CC2)n1 (stereo not given)	-0.024	inactive: 30.3
O=C(NCC1CCCN(S(=O)(=O)/C=C/c2ccccc2)C1)c1ccco1 (stereo not given)	0.008	inactive: 90.1
COCCc1noc(-c2ccc(NC3CCCc4ccccc43)nc2)n1 (stereo not given)	0.001	inactive: 102
CCOC(=O)C1(Cc2cccc(Cl)c2)CCCN(C(=O)c2ccc(C(C)=O)s2)C1 (stereo not given)	-0.019	inactive: 65.2
